Among all 50,000 compounds or so, about 800 (1.6%) showed an effect of 50% or more. The list shows a part of the results.

For the assay, the target named is Bcl-2-like protein 10 (Homo sapiens) (UniProt Q9HD36). The assay can be described thus: Phenotype converters, Bcl-B/TR3 peptide binding displacement, primary biochemical FP (AID 1240).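 Further: 0% = Bcl-B with tracer peptide and DMSO and 100% = tracer peptide lacking Bcl-B.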 The following applies: GST-Bcl-B / FITC-TR3 peptide fluorescence polarization; stronger effect = higher value; compound at 3.75 mg/L. A general note: Fluorescence polarisation rises when a labelled molecule tumbles more slowly, as on binding a larger partner.
Chain of UniProt Q9HD36 (Q9HD36 whole entry, looked up): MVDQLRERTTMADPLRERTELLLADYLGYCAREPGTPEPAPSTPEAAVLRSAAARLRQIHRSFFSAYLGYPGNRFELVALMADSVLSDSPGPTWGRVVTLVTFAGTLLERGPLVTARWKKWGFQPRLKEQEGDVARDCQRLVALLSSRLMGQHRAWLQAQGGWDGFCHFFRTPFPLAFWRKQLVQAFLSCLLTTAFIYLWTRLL
Take `Cc1c(N2C(=O)c3cccc([N+](=O)[O-])c3C2=O)c(=O)n(-c2ccccc2)n1C`: the displacement was -1.7%.
On to `CC(=O)c1ccc(N/C(=N/S(=O)(=O)c2ccccc2)c2ccccc2)cc1`, for which the displacement was found to be 11.1%.
In the case of `CCOP(=O)(CC(=O)NNC(=O)Nc1ccccc1)OCC`, the displacement was -6.2%.
For `Cc1ccc(CNC(=O)c2cccc([N+](=O)[O-])c2)cc1` the value was 13.7%; for `CCc1ccc(C2C(C(=O)OC)=CN(Cc3ccc(C)cc3)C=C2C(=O)OC)s1`, 4.1%.
With `CCOC(=O)C(C(C)=O)(N1CCOCC1)N1CCOCC1` the figure was -1.8%; with `CN1C(=O)/C(=C\c2cc(Cl)c(O)c(Cl)c2)SC1=S`, 8.3%.
With `C#CCOc1c(I)cc(I)cc1/C=N/NC(N)=S` the figure was -14.2%; with `Cc1cccc(NC(=O)CN(c2ccc(Br)cc2)S(C)(=O)=O)c1`, 23.9%.
Consider `Cc1cccc(C(=O)NCCc2nc3ccccc3[nH]2)c1`, for which the displacement is -9.3%.
For `C/C(=N/NC(=O)c1sc2cc(F)ccc2c1Cl)c1cccs1` the value was 132%; for `Cc1cc(C(=O)Nc2nc(-c3ccc(Cl)cc3)cs2)ccc1[N+](=O)[O-]`, -6.2%.
For `CC(C)(Cc1ccc(O)cc1)NC(=O)c1ccccc1` the value was 14.1%; for `O=C1/C(=C/c2ccc(-c3ccccc3[N+](=O)[O-])o2)SC(=Nc2ccccc2)N1c1ccccc1`, 3.9%; for `Cc1ccc(S(=O)(=O)N(Cc2ccccc2)Cc2ccco2)cc1`, 4.3%.
For `CC(C)C12CN3CC(C(C)C)(CN(C1)C3c1cccc([N+](=O)[O-])c1)C2=O` (centres undefined) the value was -6.4%.
For `COC(=O)c1c(NC(=O)/C=C/c2ccco2)sc2c1CCC(C)C2` (centres undefined), the displacement was 23.7%.
For `CCOc1ccc(C(=O)Nc2cc(-c3nc4ccccc4s3)ccc2C)cc1Cl` the value was 6.8%; for `COc1cc(C=O)ccc1OCCOc1ccc(C)c(C)c1`, 11.6%.
With `CCCOc1ccc(C(=O)Nc2sc(C)cc2C(=O)OC)cc1` the figure was -6.5%; with `CCOc1ccccc1NC(=O)CN(c1ccc(C)cc1)S(=O)(=O)c1ccc(F)cc1`, 10.7%; with `Cc1n[nH]c(C)c1Sc1ccc(Br)cc1`, -9.2%.
As to `Cc1ccc(-c2cc(C(=O)Nc3ccc(Br)cc3)c3ccccc3n2)o1`, the displacement is 0.5%.
For `CCC1(C)CC(CC(=O)O)(c2ccc(F)cc2)CCO1` (centres undefined) the value was -5%; for `CCCOc1ccc(N2C(=O)CC(Nc3ccc(Cl)cc3)C2=O)cc1` (centres undefined), -3.4%; for `CCn1nc(C(C)C(=O)O)c2ccccc2c1=O` (centres undefined), 1.7%.
For `COc1ccccc1/C=N/N=C1/NC(=O)C(CC(=O)Nc2ccc(Cl)c(Cl)c2)S1` (centres undefined) the value was 9.4%; for `NC(=O)SCC(=O)Nc1ccc(I)cc1`, 5.1%; for `COc1ccccc1OCCOc1ccc(/C=C2/SC(=S)N(C)C2=O)cc1`, 3.9%.
As for `O=C(COc1ccccc1)Nc1nn[nH]n1`, the displacement came to 9.5%.
For `COc1ccc(C(=O)Nc2ccccc2)cc1NC(C)=O` the value was 7.6%; for `O=C(CCc1ccccc1)Nc1ccc(Cc2ccncc2)cc1`, 7.7%.
In the case of `O=C(CSc1nc2sc3c(c2c(=O)[nH]1)CCCC3)NCCCn1ccnc1`, the displacement was 0.6%.
In the case of `O=C1NC(=S)NC(=O)C1=Cc1cc(Br)c(Sc2ccc(Cl)cc2)o1`, the displacement is -0.9%.
`Cc1onc(-c2c(Cl)cccc2Cl)c1C(=O)Nc1ccc(OCc2ccccc2)cc1`: the displacement was 4.6%.
For `COc1ccccc1C1SCCN1S(=O)(=O)c1ccc2ccccc2c1` (centres undefined) the value was -3%; for `O=C1C2C3C=CC(C3=C3CCCC3)C2C(=O)N1c1cccc([N+](=O)[O-])c1` (centres undefined), 1.8%; for `COc1ccc(-c2nnc(NC(=O)Nc3ccc(Cl)c(Cl)c3)s2)cc1`, 27%.
For `O=C(Nc1ccc2ccccc2c1)c1ccc(-c2cccc(Cl)c2)o1`, the displacement is 10.2%.
With `CCOC(=O)c1c(NC(=O)Cc2ccccc2)sc(C(=O)N2CCCCC2)c1C` the figure was -6.6%.
With `CC1CCC(C(C)C)C(OC(=O)c2ccco2)C1` (centres undefined) the figure was 15.4%; with `CS(=O)(=O)N(CC(=O)NCc1ccccc1)c1ccc(Oc2ccccc2)cc1`, 7.1%.
For `COC(=O)c1ccc(OC(=O)CN2C(=O)c3cccc([N+](=O)[O-])c3C2=O)cc1` the value was -1.7%; for `O=C(NCC1CCCO1)C12CC3CC(CC(C3)C1)C2` (centres undefined), 2.8%; for `CCSc1nnc(N2C(=O)c3ccc(C(=O)c4ccc(C(=O)O)cc4)cc3C2=O)s1`, -20.9%.
For `COC(=O)c1cc(Cl)c(NC(=O)COc2ccc(C)cc2C(C)(C)C)cc1OC`, the displacement was -11.5%.
In the case of `COc1ccc(CC(=O)Nc2ccccc2C(F)(F)F)cc1`, the displacement is -12.6%.
For `COC(=O)c1c(N=CN(C)C)c(C#N)c(C)n1-c1ccccc1` the value was 3.9%; for `COc1ccc(/C=C2\SC(=S)N(Cc3ccco3)C2=O)cc1`, 14.2%; for `Cc1cc(C)cc(CC2CC(=O)N(c3cc(C)ccc3C)C2=O)c1` (centres undefined), 5.8%.
With `COc1ccc(C(=O)Nc2ccc(Br)c(C)c2)cc1OC`, the displacement was -0.5%.
For `N#Cc1c(-c2ccccc2)cc(-c2ccc(Br)cc2)nc1N` the value was 8.8%; for `O=C(CN1CCCC1=O)NC1C2CC3CC(C2)CC1C3` (centres undefined), -3.3%; for `CC(C)(C)Nc1nc(Nc2ccccc2)nc(Nc2ccccc2)n1`, 8.6%.
For `Nc1ccc(C(=O)NCCNCCNC(=O)c2ccc(N)cc2)cc1` the value was 8%.
On to `COC(=O)CSc1nnc2n(-c3ccc(OC)cc3)c(=O)c3c4c(sc3n12)CCCC4`, for which the displacement turned out to be 5.6%.
With `CC(C)OC(=O)c1c(-c2ccc(F)cc2)csc1N` the figure was 1.3%.
With `C#Cc1cccc(NC(=O)c2ccc(OC)cc2)c1` the figure was -6.4%; with `COc1cc(C(=O)Nc2cccc(-c3nc4ncccc4o3)c2)ccc1OCc1ccc(Cl)cc1`, -2.1%.
With `C/C(=N\N=C\c1cccnc1)C1C(=O)c2ccccc2C1=O` the figure was 31.4%; with `COc1cc(/C=C2/SC(=S)NC2=O)ccc1OC(=O)c1ccc(Cl)cc1`, 11.4%.
Consider `Nc1c(Cl)cc(-c2nc3ccccc3o2)cc1Cl`, for which the displacement amounted to 10.5%.
For `CN(C)/C=C/C=C/C(=O)c1ccc(/C=C/C=C/N(C)C)o1` the value was 36.1%; for `Cc1ccc(C(=O)Nc2ccc(Cl)cc2)o1`, -4.4%.
For `C=CCc1cccc(/C=N/NC(=O)CSc2nc3ccccc3n2CC)c1O` the value was 0.4%; for `O=C(O)c1ccc(Nc2nc(-c3ccccc3)c3cc(Cl)ccc3n2)cc1`, 1.1%; for `COC(=O)c1ccc(C(=O)OC)c(NC(=O)C(C)Oc2ccc(Cl)cc2C)c1` (centres undefined), 1%.
With `Cc1no[n+]([O-])c1COc1ccccc1/C=C1\SC(=S)NC1=O` the figure was -34.3%; with `COc1ccc(S(=O)(=O)N2CCN(Cc3cccc(Oc4ccccc4)c3)CC2)cc1`, 11.6%.
Take `O=C(Nc1cccc(C(=O)Nc2cccc(Cl)c2)c1)c1ccc(F)cc1`: the displacement was -2.6%.
With `COc1ccc(OC(C)C(=O)Nc2ccc3c(c2)OCCO3)cc1` (centres undefined) the figure was -4.5%; with `COc1ccc(N(CC(=O)N/N=C/c2cc(Br)c(C)o2)S(=O)(=O)c2ccccc2[N+](=O)[O-])c(OC)c1`, -25.5%; with `COc1ccc(/C=N\NC(=O)c2c(C)nc3cc(C)ccn23)c(OC)c1`, 0.6%.
As for `CN(C)CCNC(=O)C(NC(=O)c1ccccc1)C12CC3CC(CC(C3)C1)C2` (centres undefined), the displacement is -1.7%.
For `O=C(NCCCN1CCOCC1)c1ccc(Cl)cc1Cl` the value was 1.2%; for `O=S(=O)(c1ccc(Oc2ccccc2)cc1)N1CCCCC1`, -7.3%.
For `COC(=O)c1c(C)oc2cc(Br)c(OC(=O)c3ccco3)cc12` the value was 11.2%.
For `COc1ccccc1N1CCN(/N=C/c2ccccc2C(=O)O)CC1` the value was 2.5%; for `CC1(C)Cc2c(sc(N)c2C#N)C(C)(C)N1`, 0.7%.
With `O=C(CC1SC(=Nc2ccccc2)N(c2ccccc2)C1=O)Nc1cccc(C(=O)O)c1` (centres undefined), the displacement is -1%.
For `CC(C)(C)C1CCc2c(sc3[nH]c(=S)[nH]c(=O)c23)C1` (centres undefined) the value was -14.6%.
With `O=C(c1ccc2c(c1)OCO2)N1CCOCC1` the figure was 0.5%; with `COc1cc(/C=N/NS(=O)(=O)c2ccc(Cl)cc2)cc(OC)c1OC`, -7.4%.
Turning to `COP(=O)(OC)C(Nc1cccc([N+](=O)[O-])c1)c1cccc([N+](=O)[O-])c1` (centres undefined), the displacement was -15.4%.
For `O=C(O)c1cccc(S(=O)(=O)N2CCCCCC2)c1` the value was -4.5%; for `O=C(/C=C/Nc1ccc([N+](=O)[O-])cc1Br)c1ccccc1`, 6.5%; for `O=C1NC(=O)N(c2ccccc2)C(=O)/C1=C\c1ccc(Br)o1`, -3.2%.
With `Cc1ccc(NC(=O)COC(=O)c2ccn(C)n2)cc1` the figure was 13.5%.
With `COCCOC(=O)c1ccc(NC(=O)COc2ccc(C)cc2)cc1` the figure was -5.3%; with `Cn1/c(=N\N=C\c2ccc(Br)cc2)sc2ccccc21`, -6%.
Take `Cc1ccc(NC(=O)C(c2ccccc2)c2ccccc2)c(C)c1`: the displacement stood at 14.9%.
With `C=C(C)COc1ccc2cc(-c3nc4ccccc4s3)c(=O)oc2c1` the figure was 66.5%.
`COc1ccc(C2/C(=C(\O)c3ccc(F)cc3)C(=O)C(=O)N2CCCCCC(=O)O)cc1OC` (centres undefined): the displacement was -2.9%.
For `O=C(NNC(=O)c1ccc(Cl)c([N+](=O)[O-])c1)c1ccccc1` the value was -4.4%; for `O=C1NC2(c3ccccc3)NC(=O)NC2(c2ccc(C34NC(=O)NC3(c3ccccc3)NC(=O)N4)cc2)N1` (centres undefined), 1.8%.
As for `S=C(NCc1ccco1)Nc1ccccc1`, the displacement is -3.5%.
Regarding `COC(=O)C1=CNC=C(C(=O)OC)C1c1cccc(Oc2ccccc2)c1`, the displacement came to 36.3%.
In the case of `COc1ccc(/C=C/C(=O)NC(C)Cc2ccccc2)cc1OC` (centres undefined), the displacement is -5.6%.
For `O=C1/C(=C\c2ccsc2)SC(=S)N1c1cccc(C(F)(F)F)c1` the value was 14.5%.
With `COc1cccc(OCc2nc(-c3ccccn3)no2)c1` the figure was -8.6%; with `Cc1ccc([N+](=O)[O-])cc1N1C(=O)C2C(C1=O)C1(C)C(=O)C2(C)C(c2ccccc2)=C1c1ccccc1` (centres undefined), 2.2%.
For `N#C/C(=C/c1ccc(-c2ccccc2C(=O)O)o1)C(=O)Nc1cccc(Br)c1` the value was -11.7%; for `CC1CN(C(=O)c2cnn(-c3ccccc3)c2NC(=O)c2cccc(F)c2)CC(C)O1` (centres undefined), -1.7%.
As for `CC(=O)c1ccc(NS(=O)(=O)c2ccccc2[N+](=O)[O-])cc1`, the displacement is -1.3%.
For `Cc1ccc(-c2nn(-c3ccccc3)cc2C=O)o1` the value was -0.3%; for `O=[N+]([O-])c1cccc(S(=O)(=O)Nc2ccc(Nc3ccccc3)cc2)c1`, 3%; for `CC(=O)NC(CC(C)C)C(=O)NC(=O)NCc1ccccc1` (centres undefined), -2.7%.
With `CC(=O)Nc1ccc(-c2nc(-c3ccccc3)c(-c3ccc(Br)cc3)[nH]2)cc1` the figure was 6.9%; with `COc1cccc(C2NC(=O)NC(C)=C2C(=O)Nc2ccc(C)c(Cl)c2)c1OC` (centres undefined), 11.3%.

Values taken from PubChem BioAssay AID1240 (Sanford-Burnham Center for Chemical Genomics, 2008).
